Measurements reported in paper PMC10110421.
Results are given in words; binding and its absence hold for the method and conditions named. Binding seen in cells or lysates may run through a third protein. Some binding calls cover weakened binding; strength is not graded here. For some of these results: Where a sequence is shown, tags or fusion partners need not be part of it.

How the values were obtained:
[1] = target: mCherry–IFT54 (full-length IFT54 construct) (human) (UniProt Q8TDR0); experiment: co-IP; VIP assay and immunoblotting: lysates (HMDEKN buffer) of HEK293T cells co-expressing EGFP- and mCherry-fused proteins, precipitated with GST-tagged anti-mCherry nanobody (LaM-2) on glutathione–Sepharose beads
[2] = target: mCherry-fused IFT54(533–625) (human) (UniProt Q8TDR0); experiment: as above
[3] = target: mCherry-fused IFT54(1–334) (human) (UniProt Q8TDR0); experiment: as above
[4] = target: mCherry-fused IFT54(135–625) (human) (UniProt Q8TDR0); experiment: as above
[5] = target: mCherry-fused IFT54(1–134) (human) (UniProt Q8TDR0); experiment: as above
[6] = target: EGFP–WDR60 (wild type, full-length construct) (human) (UniProt Q8WVS4); experiment: co-IP; VIP assay and immunoblotting: lysates (HMDEKN buffer) of HEK293T cells co-expressing EGFP- and mCherry-fused proteins, precipitated with GST-tagged anti-GFP nanobody on glutathione–Sepharose beads; red signal on beads, then blots with anti-mCherry and anti-GFP
EGFP–DYNC2LI1 = EGFP–DYNC2LI1 (UniProt Q8TCX1); experiment: as above
EGFP-fused WDR34 = EGFP-fused WDR34 (UniProt Q96EX3); experiment: as above
[7] = target: EGFP-fused WDR60(523–1066) (human) (UniProt Q8WVS4); experiment: as above

With EGFP-IFT20 (from UniProt Q8IY31 1-132) the binding [1] was “binds” and the binding [2] was “binds”.

With “EGFP–WDR60 (wild type, full-length construct) (from UniProt Q8WVS4 1-1066)” the binding [3] was “binds”, the binding [1] was “binds” and the binding [4] was “no binding”. For the same substance, the binding [5] was “binds”.

With “mCherry–IFT172 (from UniProt Q9UG01 1-1749)” the binding [6] was “binds”, the binding (EGFP–DYNC2LI1) was “binds” and the binding (EGFP-fused WDR34) was “binds”.

In the case of “mixture of mCherry-fused DYNLRB1 and DYNLRB2 (co-expressed) (from UniProt Q9NP97 1-96; Q8TF09 1-96) (complex)”, the binding [7] is reported as “binds weakly”.
